Experimental data from publication PMC4336329 (PLoS ONE, 2015).
About 2,200 (0.71%) of roughly 310,000 compounds showed an effect of 50% or more. Effects have a minus sign here. Some of the results follow.

The compounds below were run against human ether-à-go-go-related gene (hERG) potassium channel (human, UniProt Q12809) (assay: primary screen, population patch clamp on CHO cells stably expressing hERG).
human ether-à-go-go-related gene (hERG) potassium channel, sequence (Q12809 whole entry, looked up): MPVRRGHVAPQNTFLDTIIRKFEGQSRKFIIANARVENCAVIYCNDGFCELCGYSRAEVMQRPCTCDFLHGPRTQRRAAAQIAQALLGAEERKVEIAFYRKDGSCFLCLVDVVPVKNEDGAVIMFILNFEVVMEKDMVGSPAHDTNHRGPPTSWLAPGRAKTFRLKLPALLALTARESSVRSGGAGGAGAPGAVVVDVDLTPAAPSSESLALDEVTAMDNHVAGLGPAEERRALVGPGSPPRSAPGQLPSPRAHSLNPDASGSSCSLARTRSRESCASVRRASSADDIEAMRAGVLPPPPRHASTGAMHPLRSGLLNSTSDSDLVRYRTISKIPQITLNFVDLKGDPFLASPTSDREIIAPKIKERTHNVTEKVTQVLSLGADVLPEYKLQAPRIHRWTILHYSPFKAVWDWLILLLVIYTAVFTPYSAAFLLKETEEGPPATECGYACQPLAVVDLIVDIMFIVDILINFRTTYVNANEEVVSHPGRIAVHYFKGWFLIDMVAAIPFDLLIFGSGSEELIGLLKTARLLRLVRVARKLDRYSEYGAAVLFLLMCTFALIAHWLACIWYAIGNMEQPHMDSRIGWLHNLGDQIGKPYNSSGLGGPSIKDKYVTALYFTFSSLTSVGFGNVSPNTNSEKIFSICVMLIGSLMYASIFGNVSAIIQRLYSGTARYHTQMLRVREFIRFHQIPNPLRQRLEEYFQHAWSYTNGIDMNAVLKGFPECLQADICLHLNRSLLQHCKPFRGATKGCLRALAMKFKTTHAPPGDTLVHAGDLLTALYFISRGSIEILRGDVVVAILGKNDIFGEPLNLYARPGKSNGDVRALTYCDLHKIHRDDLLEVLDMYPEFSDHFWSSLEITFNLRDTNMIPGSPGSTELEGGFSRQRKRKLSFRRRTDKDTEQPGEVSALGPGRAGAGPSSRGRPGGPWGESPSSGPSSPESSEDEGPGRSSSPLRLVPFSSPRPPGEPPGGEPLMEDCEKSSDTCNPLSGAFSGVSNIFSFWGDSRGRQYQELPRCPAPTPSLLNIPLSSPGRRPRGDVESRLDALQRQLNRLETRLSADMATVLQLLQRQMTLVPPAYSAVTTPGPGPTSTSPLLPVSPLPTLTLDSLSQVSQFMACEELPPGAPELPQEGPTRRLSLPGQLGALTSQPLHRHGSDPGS

Going from `c1ccc2[nH]c(NCc3ccc4c(c3)OCO4)nc2c1` to `Cc1nc2ccccc2c(=O)n1NC(=O)Cc1ccc([N+](=O)[O-])cc1`, the “hERG current change (%, negative = inhibition) at 1uM” value falls from 11.5% to -8.74%.

Compared with `Cc1nc2ccccc2c(=O)n1-c1ccc(F)c(NS(=O)(=O)c2ccccc2F)c1`, `CSc1nc(-c2ccccc2)nn1S(=O)(=O)c1ccc(Cl)cc1` is lower in “hERG current change (%, negative = inhibition) at 1uM” value: 25.9% for the first, 18.3% for the second.

Going from `Cc1nn2c(N)c(C#N)cnc2c1-c1ccccc1` to `CCOc1ccc(-n2c(N)c(C(=O)NCc3cccnc3)sc2=S)cc1`, the “hERG current change (%, negative = inhibition) at 1uM” value rises from 7.98% to 12.1%.

First: Cn1nccc1C(=O)NCCN1C(=O)OC(C)(C)C1(C)O (centres unmarked)
Second: C=CCn1cc(C(=O)NCCCOC)c(=O)c2cc(S(=O)(=O)N(CC)CC)ccc21
The “hERG current change (%, negative = inhibition) at 1uM” value of the first is higher: -2.79% for the first, -6.18% for the second.

Compared with `O=C(N=C1SC2CS(=O)(=O)CC2N1c1cc(Cl)ccc1Cl)C1CC1` (centres unmarked), `COc1cccc(NC(=O)C2CCN(S(=O)(=O)c3ccc4c(c3)NC(=O)C(C)S4)CC2)c1` (centres unmarked) is higher in “hERG current change (%, negative = inhibition) at 1uM” value: 9.34% for the first, 25.8% for the second.

First: CC(c1nnc(SCC(=O)N2CCc3ccccc32)n1-c1ccc(Cl)cc1)N(C)C (centres unmarked)
Second: Cc1ccc(-n2nnnc2SCC(=O)NC2CCCc3ccccc32)cc1 (centres unmarked)
The “hERG current change (%, negative = inhibition) at 1uM” value of the first is higher: 7.08% for the first, -4.36% for the second.

Compared with `CCc1cccc(C)c1NC(=O)CN(C)Cc1ccccc1F.O=C(O)C(=O)O`, `CCN(Cc1ccccc1)S(=O)(=O)c1ccc(C(=O)Nc2nnc(C3CC3)o2)cc1` is higher in “hERG current change (%, negative = inhibition) at 1uM” value: -1.84% for the first, 12.3% for the second.

Compared with `COC(=O)c1ccc(S(=O)(=O)c2ccc([N+](=O)[O-])cc2)cc1`, `COc1ccc(C(=O)Nc2ccccc2C(N)=O)cc1` is lower in “hERG current change (%, negative = inhibition) at 1uM” value: 4.05% for the first, 2.93% for the second.

First: CSc1ncc(Cl)c(C(=O)O)n1
Second: CSc1n[nH]c(NCc2ccc(Cl)cc2)n1
The “hERG current change (%, negative = inhibition) at 1uM” value of the first is higher: 19.7% for the first, 7.8% for the second.

First: Cc1cc(C)c(C)c(OCCCn2ccnc2)c1
Second: COc1ccc2nc(NC(=O)c3ccc(-n4nc(C)cc4C)cc3)sc2c1
The “hERG current change (%, negative = inhibition) at 1uM” value of the first is lower: 2.77% for the first, 13.5% for the second.

Compared with `CN(C)c1nc2n(c(=O)n1)CCO2`, `O=C(CSc1nc(O)c(Cc2ccccc2)c(=O)[nH]1)N1CCOCC1` is lower in “hERG current change (%, negative = inhibition) at 1uM” value: 18.4% for the first, -8.45% for the second.

Compared with `Cc1cccc(OCC(=O)OC(C)C(=O)Nc2ccc(S(=O)(=O)N3CCCCC3)cc2)c1` (centres unmarked), `COc1ccc(S(=O)(=O)N2CCN(C)CC2)cc1C(=O)Nc1ccccc1` is higher in “hERG current change (%, negative = inhibition) at 1uM” value: 9.99% for the first, 11.7% for the second.

Going from `COc1ccc(C(C(=O)NCc2ccccc2)N(C(=O)c2snc(C(N)=O)c2N)c2ccccc2OC)cc1OC` (centres unmarked) to `COc1ccc(NC(=O)C2CC(c3ccc(OC)c(OC)c3)=NO2)cc1OC` (centres unmarked), the “hERG current change (%, negative = inhibition) at 1uM” value rises from -6.78% to 1.07%.

Going from `Fc1ccc(-c2cc(-c3nnc4n3CCCCC4)c3ccccc3n2)cc1` to `Cc1ccc(C(=O)COC(=O)c2cc(=O)[nH]c3ccccc23)cc1`, the “hERG current change (%, negative = inhibition) at 1uM” value rises from -23.2% to 8.3%.

First: CCCCN(CCCC)C(=O)c1cc(Cl)ccc1[N+](=O)[O-]
Second: O=C(COC(=O)CCC(=O)c1ccc(Cl)cc1)NC1CC1
The “hERG current change (%, negative = inhibition) at 1uM” value of the first is lower: 10.4% for the first, 11.5% for the second.

First: CC(C1CC2CCC1C2)N1CC(O)=C(c2nc3ccccc3[nH]2)C1=N (centres unmarked)
Second: O=C(NC1CCN(S(=O)(=O)c2ccc(F)cc2)CC1)c1cccnc1
The “hERG current change (%, negative = inhibition) at 1uM” value of the first is higher: 7.7% for the first, -4.55% for the second.

Compared with `Cc1ccc(N=Nc2ccc(O)cc2)c(Br)c1`, `Cc1cc(O)ccc1Nc1nc2ccccc2nc1Nc1ccc(O)cc1C` is lower in “hERG current change (%, negative = inhibition) at 1uM” value: 12.1% for the first, 2.58% for the second.

Going from `Cc1ccc(/C=N/NC(=O)c2cccs2)o1` to `Cc1cc(=O)[nH]c(Nc2ccc(C(=O)OC(C)C)cc2)n1`, the “hERG current change (%, negative = inhibition) at 1uM” value rises from 7.85% to 12.8%.

Going from `O=C(c1ccc(=O)[nH]c1)N1CCN(S(=O)(=O)c2ccc(Cl)cc2)CC1` to `CCN(CC)S(=O)(=O)c1ccc(N2CCCC2)c(NS(=O)(=O)c2ccc(F)cc2)c1`, the “hERG current change (%, negative = inhibition) at 1uM” value falls from 8.17% to 5.95%.

Compared with `O=S(=O)(NCc1ccccn1)c1ccc(Cl)c(C(F)(F)F)c1`, `CN1C(=O)[C@@H]2[C@H](C1=O)[C@@H]1C(=O)Nc3ccccc3C(=O)N1[C@@H]2c1cccc(Br)c1` is lower in “hERG current change (%, negative = inhibition) at 1uM” value: 6.9% for the first, -12.7% for the second.

First: COc1ccc(C(=O)NCC(=O)OCc2ccc(F)cc2)cc1
Second: O=C(c1cccc(Br)c1)c1cn(-c2ccccc2)nc1C(=O)c1ccccc1
The “hERG current change (%, negative = inhibition) at 1uM” value of the first is lower: 4.63% for the first, 8.08% for the second.

Compared with `CCN1C(=O)C2C(c3ccc(O)c(OC)c3)NC(C)(C(=O)OC)C2C1=O` (centres unmarked), `COCCNC(=O)C(NC(=O)C1CCC(C)CC1)C(C)C` (centres unmarked) is lower in “hERG current change (%, negative = inhibition) at 1uM” value: 10.2% for the first, 8.56% for the second.
